In general, IC50 refers to the point on the concentration scale where inhibition reaches its midpoint.

Data on six cell lines can be found in the supplement of paper PMC4967469.

By IC50 is meant the dose at which the fit gives 50% viability; a limit (>, <) means that the fit lies beyond the doses tested. For AUC the same curve is integrated over the 256-fold range of doses and scaled to a fraction; it is 1 without any effect and falls as sensitivity rises. For part of these data: Any top dose called inferred is not printed in the source and was worked back from the curve model.

Common to all, as to assay: Viability of human cancer cell lines after 72 h of drug (GDSC screen)
Compound in one assay: COc1cc2nccc(Oc3ccc(NC(=O)C4(C(=O)Nc5ccc(F)cc5)CC4)cc3)c2cc1OC [XL-184]
Particulars: top dose 5.12 µM; top dose inferred. The method, then: (§1)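 Human cancer cell lines in 384-well plates, medium with 10% serum, drug for 72 h over a 256-fold dose range (nine 2-fold or five 4-fold steps up to the top dose). Adherent lines were fixed and stained with the nucleic acid dye Syto60, suspension lines read with resazurin; signal relative to control wells, capped at 0 and 100%. One two-parameter sigmoid per drug and line, fitted in a mixed model over all curves with the slope shared within a line.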

Compound in another assay: CNCc1ccc(-c2[nH]c3cc(F)cc4c3c2CCNC4=O)cc1 [AG-014699]
The following applies: top dose 5 µM; top dose inferred. The method, then: as §1

Compound in the next assay: COc1cc2ncnc(Nc3ccc(F)c(Cl)c3)c2cc1OCCCN1CCOCC1 [Gefitinib]
Particulars: top dose 0.5 µM. Here is the method:
as §1

Compound in a further assay: N=C(N)NC(=N)NCCc1ccccc1 [Phenformin]
Particulars: top dose 4000 µM; top dose inferred. The method, then: as §1

Compound in another assay: CCC1=C[C@@H]2CN(C1)Cc1c([nH]c3ccccc13)[C@@](C(=O)OC)(c1cc3c(cc1OC)N(C)[C@H]1[C@@](O)(C(=O)OC)[C@H](OC(C)=O)[C@]4(CC)C=CCN5CC[C@]31[C@@H]54)C2 [Vinorelbine]
The following applies: top dose 0.064 µM; top dose inferred. The method, then:
as §1

Compound in a further assay: COc1cc2ncnc(Nc3cc(Br)c(O)c(Br)c3)c2cc1OC [WHI-P97]
The following applies: top dose 10.24 µM; top dose inferred. The method, then: as §1

Compound in the next assay: O=c1cc(N2CCOCC2)oc2c(-c3cccc4c3sc3ccccc34)cccc12 [NU-7441]
Particulars: top dose 2 µM; top dose inferred. The method, then: as §1

Compound in another assay: O=c1cc(CN2CCOCC2)occ1OCCCCCSc1ccnc2cc(C(F)(F)F)ccc12 [EHT 1864]
Particulars: top dose 10 µM; top dose inferred. Here is the method: as §1

Compound in another assay: C=CC(=O)Nc1cc(NC(=O)c2ccc(C)c(NC(=O)c3ccno3)c2)cc(C(F)(F)F)c1 [QL-XI-92]
The following applies: top dose 10.24 µM; top dose inferred. The method, then: as §1

OV-90 (ovary, adherent): the AUC in the assay with XL-184 stood at 0.966; with AG-014699, 0.982; with Gefitinib, 0.978; in the assay with Phenformin it was 0.579; in the assay with Vinorelbine it was 0.748; with WHI-P97 it was 0.977. For the same cell line, the AUC with NU-7441 turned out to be 0.956; in the assay with EHT 1864 it was 0.941; in the assay with QL-XI-92, 0.972. Also, the half-inhibitory concentration (IC50) was greater than 5.12 µM in the assay with XL-184; greater than 5 µM with AG-014699; greater than 500 nM with Gefitinib; 0.437 mM with Phenformin; 25.8 nM with Vinorelbine; greater than 10.2 µM with WHI-P97. For the same cell line, the IC50 with NU-7441 was greater than 2000 nM; with EHT 1864, greater than 10 µM; with QL-XI-92, greater than 10.2 µM.
As to OVCAR-5 (ovary, adherent), the AUC came to 0.952 with XL-184; 0.982 with AG-014699; 0.979 with Gefitinib; 0.859 in the assay with Phenformin; 0.806 with Vinorelbine; 0.934 in the assay with WHI-P97. Also, the AUC in the assay with NU-7441 was determined as 0.982; with EHT 1864 it was 0.98; in the assay with QL-XI-92 it was 0.968. In addition, the 50% inhibitory concentration (IC50) with XL-184 is greater than 5.12 µM; in the assay with AG-014699, greater than 5 µM; with Gefitinib, greater than 500 nM; with Phenformin, greater than 4 mM; with Vinorelbine, 40.7 nM; with WHI-P97 it was greater than 10.2 µM. The IC50 with NU-7441 was greater than 2000 nM; with EHT 1864 it was greater than 10 µM; with QL-XI-92, greater than 10.2 µM.
Regarding OVISE (ovary, adherent), the AUC came to 0.971 with XL-184; 0.931 with AG-014699; 0.787 in the assay with Gefitinib; 0.783 in the assay with Phenformin; 0.77 with Vinorelbine; 0.875 with WHI-P97. The AUC in the assay with NU-7441 turned out to be 0.897; in the assay with EHT 1864, 0.96; in the assay with QL-XI-92 it was 0.92. The IC50 with XL-184 was greater than 5.12 µM; in the assay with AG-014699 it was greater than 5 µM; with Gefitinib it was 298 nM; in the assay with Phenformin, 2.31 mM; in the assay with Vinorelbine, 32.6 nM; with WHI-P97, greater than 10.2 µM. Moreover, the half-maximal inhibitory concentration (IC50) with NU-7441 is greater than 2000 nM; with EHT 1864 it was greater than 10 µM; with QL-XI-92, greater than 10.2 µM.
Consider OVKATE (ovary, adherent), for which the AUC turned out to be 0.824 with XL-184; 0.979 with AG-014699; 0.947 in the assay with Gefitinib; 0.889 in the assay with Phenformin; 0.953 with Vinorelbine; 0.965 with WHI-P97. Moreover, the AUC with NU-7441 came out at 0.964; with EHT 1864, 0.979; with QL-XI-92, 0.979. Also, the IC50 with XL-184 is greater than 5.12 µM; in the assay with AG-014699, greater than 5 µM; in the assay with Gefitinib, greater than 500 nM; with Phenformin, greater than 4 mM; with Vinorelbine, greater than 64 nM; with WHI-P97, greater than 10.2 µM. Moreover, the values for the IC50 with NU-7441, with EHT 1864 and with QL-XI-92 were greater than 2000 nM, greater than 10 µM and greater than 10.2 µM, respectively.
For OVMIU (ovary, adherent), the AUC with XL-184 amounted to 0.924; in the assay with AG-014699, 0.932; with Gefitinib it was 0.699; in the assay with Phenformin, 0.741; with Vinorelbine it was 0.684; with WHI-P97, 0.764. For the same cell line, the AUC with NU-7441 was 0.948; with EHT 1864, 0.952; with QL-XI-92 it was 0.931. Further, the concentration for half-maximal inhibition (IC50) is greater than 5.12 µM with XL-184; greater than 5 µM with AG-014699; 132 nM in the assay with Gefitinib; 1.48 mM with Phenformin; 15 nM with Vinorelbine; 4.62 µM in the assay with WHI-P97. The IC50 with NU-7441 is greater than 2000 nM; with EHT 1864 it was greater than 10 µM; with QL-XI-92 it was greater than 10.2 µM.
For OVTOKO (ovary, adherent), the AUC was 0.936 in the assay with XL-184; 0.957 in the assay with AG-014699; 0.803 with Gefitinib; 0.814 with Phenformin; 0.783 with Vinorelbine; 0.92 with WHI-P97. Further, the AUC with NU-7441 was 0.872; with EHT 1864, 0.887; with QL-XI-92 it was 0.957. Moreover, the IC50 with XL-184 is greater than 5.12 µM; with AG-014699, greater than 5 µM; with Gefitinib, 331 nM; with Phenformin, 2.96 mM; with Vinorelbine, 35.1 nM; in the assay with WHI-P97, greater than 10.2 µM. For the same cell line, the IC50 in the assay with NU-7441 is greater than 2000 nM; with EHT 1864, greater than 10 µM; with QL-XI-92, greater than 10.2 µM.
